Test results published in PubChem BioAssay AID1347055 (National Center for Advancing Translational Sciences (NCATS), 2019).
“And” between values parts separate entries of the source, which are not always exact repeats. Identical values can stand only once. The whole screen tested about 54,000 compounds, of which about 120 (0.22%) were called active. This list was built around the results that the source calls inconclusive (neither active nor inactive); the mix of calls is not that of the screen. Calls come from the whole dose curve; as a rule, active = well fitted inhibition curve with a large enough effect; inconclusive = small, poorly fitted or top-dose-only effect, or effect the other way; inactive = flat fitted curve, though single readings scatter. Where the call is inconclusive, the potency comes from a doubtful curve fit.

The molecules below were run against Fumarate hydratase, mitochondrial (Homo sapiens) (UniProt P07954) (assay: Identification of activators of human fumarate hydratase by quantitative high-throughput screening). Details: FH coupled MDH/diaphorase resazurin fluorescence, 15 min; series mostly up to 79.9 µM.
Note: the screen sought activators but most active calls are inhibition curves; nearly all actives have a fitted effect of over 45% in size.
Potency is the fitted concentration of half-maximal effect; tags give direction and shape of the fitted curve.

Sequence of UniProt P07954 (P07954 whole entry, looked up): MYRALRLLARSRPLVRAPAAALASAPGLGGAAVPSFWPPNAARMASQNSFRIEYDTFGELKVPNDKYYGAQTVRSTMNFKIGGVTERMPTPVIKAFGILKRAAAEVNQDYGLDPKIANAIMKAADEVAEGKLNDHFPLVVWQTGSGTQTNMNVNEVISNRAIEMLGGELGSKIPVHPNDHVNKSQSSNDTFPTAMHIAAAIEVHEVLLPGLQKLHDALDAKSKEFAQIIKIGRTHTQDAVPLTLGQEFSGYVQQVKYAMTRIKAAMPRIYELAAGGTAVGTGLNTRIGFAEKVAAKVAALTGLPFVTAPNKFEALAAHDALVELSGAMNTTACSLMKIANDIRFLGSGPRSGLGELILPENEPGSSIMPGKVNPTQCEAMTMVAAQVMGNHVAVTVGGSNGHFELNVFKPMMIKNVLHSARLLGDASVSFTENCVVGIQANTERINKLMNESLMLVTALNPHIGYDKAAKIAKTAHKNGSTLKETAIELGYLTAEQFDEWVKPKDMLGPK

Row | SMILES | Potency
1 | CC(=O)c1ccc(NC(=O)CSc2nnc(NC(=O)NC3CCCCC3)s2)cc1 | inactive
2 | CC(C)C[C@H]1C(=O)N2CCC[C@H]2[C@]2(O)O[C@](NC(=O)[C@@H]3C=C4c5cccc6[nH]c(Br)c(c56)C[C@H]4N(C)C3)(C(C)C)C(=O)N12 | inconclusive: 8.91 µM [inhibitor, partial curve, poor fit]
3 | Cn1ccc2c(OCC(=O)NCc3ccc(F)cc3)cccc2c1=O | inactive
4 | O=C(CSc1nc2c(c(=O)[nH]1)CCC2)Nc1cc(C(F)(F)F)ccc1Cl | inactive
5 | COc1ccc(NCc2cccn2-c2nnc(N3CCC(C)CC3)s2)c(OC)c1 | inconclusive: 17.8 µM [inhibitor, partial curve, poor fit]
6 | O=C(Nc1ccccc1C(F)(F)F)C1CCN(c2nnc(-n3cccc3)s2)CC1 | inactive
7 | C=Cc1ccc(CSc2nc(-c3ccccc3C)nc3c2Cc2c(CO)cnc(C)c2O3)cc1 | inconclusive: 31.6 µM [inhibitor, partial curve, poor fit]
8 | COC(=O)c1c(SC)nc2ccccc2c1OCc1ccc(C)cc1C | active: 35.5 µM
9 | O=C(NCCc1ccccc1)C(=O)NCC(c1cccnc1)N1CCN(c2ccccc2)CC1 (stereo not given) | inactive
10 | COc1ccc(OC)c(NC(=O)c2c(NCc3ccc(C)o3)sc3c2CCCCC3)c1 | inactive
11 | NC(=O)[C@@H]1CC[C@H](c2ccc(OCc3ccccc3F)cc2)N1 | inactive
12 | CSc1ccc(CCNC(=O)c2c(C)nn(-c3ccc(F)cc3)c2-n2cccc2)cc1 | inconclusive: 35.5 µM [inhibitor, partial curve]
13 | CCN(CC)C(=O)Cn1cc(SCC(=O)Nc2cc(OC)ccc2OC)c2ccccc21 | inconclusive: 28.2 µM [inhibitor, partial curve]
14 | Cc1cccc(NS(=O)(=O)c2ccc3c(c2)n(C)c(=O)n3C)c1C | inconclusive: 35.5 µM [inhibitor, partial curve, poor fit]
15 | CCCCOC(=O)c1ccc(NC(=O)c2ccc3c(c2)CCCN3S(C)(=O)=O)cc1 | inconclusive: 28.2 µM [inhibitor, single point]
16 | O=C(c1ccc2c(c1)N(Cc1ccccc1Cl)C(=O)c1ccccc1S2)N1CCCC1 | inconclusive: 39.8 µM [inhibitor, single point]
17 | CCc1ccccc1-n1c(SCC(=O)Nc2ccc(C)cc2)nc2n[nH]c(C)c2c1=N | inconclusive: 31.6 µM [inhibitor, partial curve, poor fit]
18 | Cc1cc(NC(=O)c2oc3c(c2C)-c2[nH]ncc2CC3)ccc1Br | inactive
19 | CC(C)[C@@H](c1ccc(C(F)(F)F)cc1CN(Cc1cc(C(F)(F)F)cc(C(F)(F)F)c1)c1nnn(C)n1)N1CCC(C(=O)O)CC1 | inactive
20 | COc1ccccc1NC(=O)CSc1nnc2c(n1)[nH]c1ccccc12 | inconclusive: 1.26 µM [inhibitor, partial curve, poor fit]

Row | SMILES | Potency
21 | O=C(CSC1=Nc2ccccc2C2=NC(Cc3ccccc3)C(=O)N12)Nc1cccc(Cl)c1 (stereo not given) | inconclusive: 20 µM [inhibitor, partial curve]
22 | CCOC(=O)c1c(-c2ccccc2)oc2ccc(NS(=O)(=O)c3ccc(C)cc3)cc12 | inconclusive: 14.1 µM [inhibitor, partial curve]
23 | CCOc1ccccc1CNS(=O)(=O)c1ccc(-c2cnc(C3CC3)o2)cc1 | inconclusive: 31.6 µM [inhibitor, single point]
24 | CCOC(=O)c1cc(NC(=O)c2ccccc2)c(=O)n2c1oc1ccc(Cl)cc12 | inactive
25 | O=C1OC2(c3ccccc31)c1cc(Br)c(O)c(Br)c1Oc1c2cc(Br)c(O)c1Br | inconclusive: 13.8 µM [inhibitor, partial curve]
26 | CCCC1=Nc2cc(C(=O)NCc3ccccc3)ccc2Sc2ccccc21 | inconclusive: 20 µM [inhibitor, partial curve, poor fit]
27 | CCc1oc2ccccc2c1C(=O)c1cc(Br)c(O)c(Br)c1 | inactive
28 | CC/C(=C(\c1ccccc1)c1ccc(OCCN(C)C)cc1)c1ccccc1 | inconclusive: 25.1 µM [inhibitor, partial curve, poor fit] and inconclusive: 31.6 µM [inhibitor, partial curve, poor fit]
29 | CC1CCN(C(c2ccc(F)cc2)c2sc3nc(-c4ccco4)nn3c2O)CC1 (stereo not given) | inconclusive: 3.16 µM [inhibitor, partial curve, poor fit]
30 | COc1ccc(C)cc1NC(=O)Cn1nc(N2CCN(c3ccccc3OC)CC2)ccc1=O | inactive
31 | CCCCN(CCCNC(=O)c1ccc(Sc2ccc(Cl)cc2)c(NC(C)=O)c1)c1ccccc1 | inconclusive: 17.8 µM [inhibitor, partial curve, poor fit]
32 | COc1cccc(CNc2nccn(-c3cc(C)cc(C)c3)c2=O)c1 | inactive
33 | CCN1C(=O)c2ccccc2Sc2ccc(NC(=O)Nc3ccccc3OC)cc21 | inconclusive: 17.8 µM [inhibitor, partial curve]
34 | CC(=O)c1cccc(NC(=O)C2=CC(c3ccc4c(c3)OCO4)=NS(=O)(=O)N2C)c1 | inconclusive: 8.91 µM [inhibitor, partial curve, poor fit]
35 | Cc1ccc(CNC(=O)c2ccc(CSCc3ccccc3Cl)o2)cc1 | inconclusive: 50.1 µM [inhibitor, partial curve, poor fit]
36 | Cc1ccc(NC(=O)c2ccc3oc(=O)c(S(=O)(=O)c4ccccc4)cc3c2)cc1C | inactive
37 | CCc1ccc(S(=O)(=O)c2cnc3ccc(OC)cc3c2N2CCCC(C)C2)cc1 (stereo not given) | inconclusive: 12.6 µM [inhibitor, partial curve, poor fit]
38 | CCN(c1cc(C#CCN2CCOCC2)cc(C(=O)NCc2c(C)cc(C)[nH]c2=O)c1C)C1CCC(N(C)CCOC)CC1 (stereo not given) | inactive
39 | CC(C)(C)CC(=O)OCC(=O)[C@@]1(O)CC[C@H]2[C@@H]3CCC4=CC(=O)C=C[C@]4(C)[C@H]3[C@@H](O)C[C@@]21C | inactive
40 | CC(C)c1ccc(Nc2ncnc3c2nc2n3CCCC2)cc1 | inactive
